# Measured values: ChEMBL document CHEMBL5308541, “MAIP: An Open-Source Tool to Enrich High-Throughput Screening Output and Identify Novel, Druglike Molecules with Antimalarial Activity” (ACS Med Chem Lett, 2023)
# Among all 150,000 compounds or so, about 540 (0.36%) showed an effect of 50% or more. Some of the results follow.
# Tested on: Plasmodium falciparum
# Assay: Primary screen in NF54 nanoGlo assay, in single point, at 2uM, 72h; a lower Z score goes with more inhibition
# Format: functional, Erythrocyte
# Conditions: timepoint 72 hour
Compound,% Inhibition,Z score
CC[C@](O)(CCCO)CNC(=O)c1cccc(-c2ccc3[nH]ccc3c2)c1,-7%,1.12
CCC(C(=O)Nc1cc(C)on1)N(C1CCc2nnc(C)n2C1)C(CC)C(=O)Nc1cc(C)on1 (configuration not stated),-16%,2.84
Cc1cc(C)c2c(CC(=O)N3CCC[C@@]4(CCOC4)C3)coc2c1C,1%,-0.18
Cc1nnc(-c2cccc(-c3cnn(CCN4CCOCC4)c3)c2)s1,-13%,1.98
COc1ccc2ccc(OCc3nc(C(=O)N(C)Cc4cc(C)no4)co3)cc2c1,-6%,1.1
C[C@H]1CCCCN1CCN(C)c1cc(N)nc(N2CCOCC2)n1,6%,-0.99
Cc1ccc(N2CCC[C@H](Nc3ncnc4[nH]ccc34)C2)nn1,5%,-0.9
CC1(C)COCN1C(=O)c1ccc(-n2cncn2)nn1,-11%,1.97
COCCN1CCC[C@@]2(CCN(c3ccnc4cc(Cl)ccc34)C2)C1,99%,-17.32
O=C(c1cc2n(n1)CC1(CCNCC1)OC2)N1CCC([C@H]2CCCNC2)CC1,1%,-0.16
CNc1cc(-c2cccc(C(=O)N(C)CCCN(C)C)c2)nc(N)n1,-5%,0.94
COc1ccc(-c2nnc(C)o2)cc1NC(=O)c1cc(-c2ccccc2)[nH]n1,0%,0
Brc1cnc(C2CCOCC2)nc1,-7%,1.31
C1CC2(C1)C(NC1CCN(CCN3CCOCC3)CC1)C1CCOC12 (configuration not stated),-7%,1.57
CC1CCCN(CCNC(=O)C2CCCN(C(=O)c3ccc4[nH]ncc4c3)C2)C1 (configuration not stated),-1%,0.16
CCNc1ccc(-c2ccc3c(c2)CCN3)cn1,-8%,1.81
c1ccc(CN2CCC(Nc3nnc(-c4ccc[nH]4)o3)CC2)cc1,4%,-0.71
COC(=O)CN1CCC(N[C@H]2CCN(c3ncccc3F)C2)CC1,0%,-0.1
CCS(=O)(=O)c1c[nH]c(=O)c(C(=O)N2CCC[C@H](C)CC2)c1,-6%,1.28
Cc1ccccc1[C@]1(O)CCN(C(=O)CN2CCC(c3ccccc3)CC2)C1,-10%,1.66
c1ccc(CO[C@@H]2CCCC[C@H]2NC2CCN(c3ncccn3)CC2)cc1,-7%,1.19

Compound,% Inhibition,Z score
Nc1ccc(Nc2ccc(F)cc2)c2ccncc12,47%,-9.42
Fc1ccc([C@H](CNc2nccc(-c3ccccn3)n2)N2CCCC2)cc1,5%,-1.03
Cn1cc(CC(=O)NCc2ccc(Oc3nccs3)cc2)c2ccccc21,-10%,1.72
CC[C@@H](Cn1ccnc1)Nc1nc(-c2cccnc2)nc2c1CCNCC2,-8%,1.29
CC1(C)NC(=O)N(CCOC(=O)CC2CC3CCC2C3)C1=O (configuration not stated),-3%,0.45
Cn1cc(-c2cnn(CC3CCN(C(=O)OC(C)(C)C)CC3)c2)cn1,6%,-0.98
O=C(N1CC=C(c2c[nH]c3ccccc23)CC1)C1(Cc2nc3ccccc3s2)CCCC1,-1%,0.08
Cc1noc2ncnc(NCc3cccc(OCCN(C)C4CCOCC4)c3)c12,2%,-0.34
Cc1ccncc1Cc1nc(C2(c3cccc(OC(F)(F)F)c3)CC2)no1,-4%,0.78
Cc1nc(CN(Cc2ccccc2)[C@@H](C)C2CC2)sc1C,-6%,1.2
CCOc1ccc2ncc(C#N)c(NCc3cccc(Cl)c3)c2c1,-9%,1.33
CN(CCc1nc2cc(Cl)ccc2[nH]1)C(=O)[C@@H]1CC2(CCNCC2)CN1,-2%,0.28
CC[C@H](C)Oc1cc(CNc2nccc(N3CCOCC3)n2)ccn1,-3%,0.61
CN(C)c1ccccc1-c1cccc(C(=O)NC2CCN(CCO)CC2)c1,-11%,1.94
C[C@@H]1CN(c2ncnc3[nH]ccc23)CCN(C2CCC2)C1,-3%,0.54
CN(C)c1ccc(-c2cncc(C(=O)N3CCN(CCN4CCCOCC4)CC3)c2)cc1,-7%,1.14
Cc1cc(N2CCC(NCc3ccc(C(F)(F)F)cc3F)CC2)nc(N)n1,10%,-2.1
Cc1nc2ccc(C(=O)NCc3ccc(N4CCC[C@H](C)C4)cc3)cc2o1,-9%,1.62
CN1C2CCC1CC(N1CCN(C(=O)c3cnc4ccc(F)cc4c3)CC1)C2 (configuration not stated),-7%,1.16
COC1CN(c2ncnc3[nH]ccc23)CC1Cc1cc(C)no1 (configuration not stated),6%,-1.14
